{
  "source": "paper PMC5892938",
  "note": "This is one part of the list. At the low end of the ranking the order means little.",
  "data": [
    {"molecular_target": "GST-SBP-SLBP (stem-loop binding protein) (UniProt Q14493)", "assay": "targeted RNA Bind-n-Seq;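 note: DESeq read counts versus GST-SBP nonspecific binding control pulldown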", "conditions": "RBNS binding buffer: 25 mM Tris pH 7.5, 150 mM KCl, 3 mM MgCl2, 0.1% Tween, 0.5 mg/mL BSA, 1 mM DTT; 27 nM protein, 750 pM RNA pool; temperature not stated; high values mean tight binding", "values": [
      {"sequence": "GGUCACGUCUCAAUCAACUCUACUUCCAGGGAAAUCCCUGGCUUAUUCAACAGCUCGCAGUCAAG", "binding signal (log2 fold change)": -0.012},
      {"sequence": "GGUCACGUCUCAAUCAACUCCUUCGAGGGGGGGAAAACCCCUUUACCCUCAUUUUCAACAGCUCGCAGUCAAG", "binding signal (log2 fold change)": -0.0861},
      {"sequence": "GGUCACGUCUCAAUCAACUCAUCCUCAGGAGUUUGCUCCUGCAAUUUCAACAGCUCGCAGUCAAG", "binding signal (log2 fold change)": 0.101},
      {"sequence": "GGUCACGUCUCAAUCAACUCCAUAGAGGGGGGGAAAACCCCUUUGCCCUCAUUUUCAACAGCUCGCAGUCAAG", "binding signal (log2 fold change)": 0.381},
      {"sequence": "GGUCACGUCUCAAUCAACUCAUUUCCCAGGGAAAACCCUGGUAAUCUCAACAGCUCGCAGUCAAG", "binding signal (log2 fold change)": 0.0456},
      {"sequence": "GGUCACGUCUCAAUCAACUCUUUUUCCAGGGAAAGCCCUGGCAUGUUCAACAGCUCGCAGUCAAG", "binding signal (log2 fold change)": 0.337},
      {"sequence": "GGUCACGUCUCAAUCAACUCAAUUUCCAGGGAAAGCCCUGGCUUACUCAACAGCUCGCAGUCAAG", "binding signal (log2 fold change)": -0.0842},
      {"sequence": "GGUCACGUCUCAAUCAACUCAUCUUCCAGGGAAAGCCCUGGCAAUUUCAACAGCUCGCAGUCAAG", "binding signal (log2 fold change)": 0.0814},
      {"sequence": "GGUCACGUCUCAAUCAACUCAUUUUCAGGAGUUUGCUCCUGUAUUCUCAACAGCUCGCAGUCAAG", "binding signal (log2 fold change)": 0.0961},
      {"sequence": "GGUCACGUCUCAAUCAACUCUAUGGAGGGGGGGAAAACCCCUUUACCCUCAACUUCAACAGCUCGCAGUCAAG", "binding signal (log2 fold change)": -0.115},
      {"sequence": "GGUCACGUCUCAAUCAACUCUCUAGAGGGGGGGAAAACCCCUUUGCCCUCACACUCAACAGCUCGCAGUCAAG", "binding signal (log2 fold change)": 0.353},
      {"sequence": "GGUCACGUCUCAAUCAACUCACUAGAGGGGGGGAAAACCCCUUUGCCCUCACAUUCAACAGCUCGCAGUCAAG", "binding signal (log2 fold change)": -0.266},
      {"sequence": "GGUCACGUCUCAAUCAACUCCAAAGAGGGGGGGAAAACCCCUUUACCCUCAACAUCAACAGCUCGCAGUCAAG", "binding signal (log2 fold change)": -0.0929},
      {"sequence": "GGUCACGUCUCAAUCAACUCUUUCCCAGGAGUUUUCUCCUGCAUACUCAACAGCUCGCAGUCAAG", "binding signal (log2 fold change)": 0.127},
      {"sequence": "GGUCACGUCUCAAUCAACUCAUCUUCAGGAGUUUGCUCCUGUAAUCUCAACAGCUCGCAGUCAAG", "binding signal (log2 fold change)": -0.0258},
      {"sequence": "GGUCACGUCUCAAUCAACUCACACGAGGGGGGGAAAACCCCUUUGCCCUCAUAAUCAACAGCUCGCAGUCAAG", "binding signal (log2 fold change)": 0.14},
      {"sequence": "GGUCACGUCUCAAUCAACUCUUAAGAGGGGGGGAAAACCCCUUUGCCCUCACUAUCAACAGCUCGCAGUCAAG", "binding signal (log2 fold change)": -0.0925},
      {"sequence": "GGUCACGUCUCAAUCAACUCAUUCCCAGGAGUUUGCUCCUGUAAUCUCAACAGCUCGCAGUCAAG", "binding signal (log2 fold change)": 0.107},
      {"sequence": "GGUCACGUCUCAAUCAACUCAUCUUCCAGGGAAACCCCUGGCAUUUUCAACAGCUCGCAGUCAAG", "binding signal (log2 fold change)": -0.0946},
      {"sequence": "GGUCACGUCUCAAUCAACUCUUUCUCCAGGGAAACCCCUGGUUAUUUCAACAGCUCGCAGUCAAG", "binding signal (log2 fold change)": 0.0475},
      {"sequence": "GGUCACGUCUCAAUCAACUCAUCAGAGGGGGGGAAAACCCCUUUACCCUCAAACUCAACAGCUCGCAGUCAAG", "binding signal (log2 fold change)": -0.0656},
      {"sequence": "GGUCACGUCUCAAUCAACUCAUCGUCAGGAGUUUCCUCCUGUAUAUUCAACAGCUCGCAGUCAAG", "binding signal (log2 fold change)": 0.186},
      {"sequence": "GGUCACGUCUCAAUCAACUCUACUUCAGGAGUUUUCUCCUGCUAUGUCAACAGCUCGCAGUCAAG", "binding signal (log2 fold change)": -0.0671},
      {"sequence": "GGUCACGUCUCAAUCAACUCAUCAGAGGGGGGGAAAACCCCUUUACCCUCAUAAUCAACAGCUCGCAGUCAAG", "binding signal (log2 fold change)": -0.304},
      {"sequence": "GGUCACGUCUCAAUCAACUCCUUAGAGGGGGGGAAAACCCCUUUACCCUCCGCAUCAACAGCUCGCAGUCAAG", "binding signal (log2 fold change)": -0.461},
      {"sequence": "GGUCACGUCUCAAUCAACUCAAUCUCAGGAGUUUACUCCUGUUAUCUCAACAGCUCGCAGUCAAG", "binding signal (log2 fold change)": -0.107},
      {"sequence": "GGUCACGUCUCAAUCAACUCUUCGUCCAGGGAAAUCCCUGGUUAAUUCAACAGCUCGCAGUCAAG", "binding signal (log2 fold change)": -0.25},
      {"sequence": "GGUCACGUCUCAAUCAACUCAGUCCCCAGGGAAAACCCUGGUAUUUUCAACAGCUCGCAGUCAAG", "binding signal (log2 fold change)": -0.0907},
      {"sequence": "GGUCACGUCUCAAUCAACUCUCUCGAGGGGGGGAAAACCCCUUUACCCUCAUUAUCAACAGCUCGCAGUCAAG", "binding signal (log2 fold change)": -0.0145},
      {"sequence": "GGUCACGUCUCAAUCAACUCUUCGUCCAGGGAAAUCCCUGGCAUAUUCAACAGCUCGCAGUCAAG", "binding signal (log2 fold change)": -0.0664},
      {"sequence": "GGUCACGUCUCAAUCAACUCCUACGAGGGGGGGAAAACCCCUUUACCCUCCACAUCAACAGCUCGCAGUCAAG", "binding signal (log2 fold change)": 0.0795},
      {"sequence": "GGUCACGUCUCAAUCAACUCUAUGUCCAGGGAAACCCCUGGCUUUUUCAACAGCUCGCAGUCAAG", "binding signal (log2 fold change)": -0.124},
      {"sequence": "GGUCACGUCUCAAUCAACUCUAUUCCAGGAGUUUCCUCCUGCAUUCUCAACAGCUCGCAGUCAAG", "binding signal (log2 fold change)": 0.101},
      {"sequence": "GGUCACGUCUCAAUCAACUCAGUUCCAGGAGUUUGCUCCUGCAUUUUCAACAGCUCGCAGUCAAG", "binding signal (log2 fold change)": 0.058},
      {"sequence": "GGUCACGUCUCAAUCAACUCAUCCCCCAGGGAAAUCCCUGGCUAUUUCAACAGCUCGCAGUCAAG", "binding signal (log2 fold change)": -0.0229},
      {"sequence": "GGUCACGUCUCAAUCAACUCAAUUCCAGGAGUUUACUCCUGUAUAUUCAACAGCUCGCAGUCAAG", "binding signal (log2 fold change)": -0.0755},
      {"sequence": "GGUCACGUCUCAAUCAACUCUUUCUCCAGGGAAACCCCUGGCAUAUUCAACAGCUCGCAGUCAAG", "binding signal (log2 fold change)": -0.123}
    ]}
  ]
}
